# Measurements as given in the supplement of paper PMC11417369.
# ± gives the standard deviation of the averaged measurements. The list shows a part of the results.
# Tested on: PfAP2-LT AP2 domain (GST-tagged)
# Test: gcPBM binding intensity (ln(normalized median fluorescence intensity)); higher = stronger DNA binding
# Outline: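 Using an Agilent 4 × 180k array, primer-extended double-stranded 36-bp intergenic genomic probes and negative controls were exposed for 1 h to GST-fused P. falciparum DNA-binding domains expressed in E. coli. Binding was carried out in 1× PBS with 1% milk, 0.2 mg/ml BSA, 0.5% salmon testes DNA and 0.03% Triton X-100, and protein was detected with Alexa488 anti-GST antibody and a 488 nm scan. Binding intensity is the highest Masliner-normalised natural-log median intensity across replicate spots of either probe orientation.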
row,Sequence,gcPBM binding intensity (ln)
1,GAATAAATATTAAATGTGCACTTGAATAGATGTAAA,8.86 ± 0.43
2,AATATTTATGTGAAGACACACAACTGTTTATTATAT [CACACA_site3447],9.23 ± 0.15
3,ATCCTACTATGTTATACACACAATTACTTTTTTCTC [CACACA_site3712],9.22 ± 0.45
4,ATATGTAAAACTTCAAAAAAATATATTTTATGACGA [GTGCAC_negctrl_site324],8.72 ± 0.42
5,TTACAACAGAATGGTATTTTTTTATTTTAAAGAAAA [TGCATGCA_negctrl_site230],8.13 ± 0.45
6,AGATACTTTCCTCAAACACACAAAACTATACAACAA [CACACA_site1474],8.97 ± 0.38
7,ATATTCTTCTAAAGGCGTACATCTACATTTATGAAA [XGTACX_site2145],8.59 ± 0.31
8,ATTCAGTTCTATAATACACACATATATTGACATTAT [CACACA_site7309],9.09 ± 0.33
9,GTTAGCTCGTTCGGAGCACACACATATATATATATA [CACACA_site8595],9.395 ± 0.0071
10,AAAAATGAAAGGTGTACACATACAAACATAGAAAGA [CACACA_site5020],9.38 ± 0.52
11,AAAATTTATATAGGCACACAAATAAATTAATACATA [CACACA_site1418],8.84 ± 0.53
12,TTTTTTTTTTTTTGGTGTACTTTTTTTAGAACGCAA [XGTACX_site4207],8.31 ± 0.45
13,TTTTTTCTTTCTTTCAAACACACATTAATTTTATTC [CACACA_site2733],8.71 ± 0.57
14,ATTCTACACCCACATACACACATATATATATATATA [CACACA_site3426],10 ± 0.085
15,TGTTCAAATTTATTCGATCTTTATATTTAATAAAAC [CACACA_negctrl_site781],8.32 ± 0.4
16,ATATTAGAAATATGAATAGAAAGAATATATAAGTAT [CACACA_negctrl_site682],8.9 ± 0.55
17,AGTTCTTCGTACCAAAAAACGGCACGCATATGTATA [TGCATGCA_negctrl_site469],8.7 ± 0.28
18,TGTATTCATACATGCACACGTACATATTTAAATATA [CACACA_site3926],8.84 ± 0.3
19,AATTATATTCTATTCACACATATTCCAACCTCTTTT [CACACA_site4670],8.9 ± 0.59
20,TGAAAGAACCTGATTACACACATAAATTATATATAT [CACACA_site26],8.98 ± 0.47
21,TTTGATGGTACACGTACACACCTTGCAAATATTTTT [CACACA_site4645],8.91 ± 0.36
22,AAAAGATAATTATGCACACACACACCCAGACACAAC [CACACA_site5428],10.34 ± 0.021

row,Sequence,gcPBM binding intensity (ln)
1,TGTATGTTGTAAAATTGTACATATATATTATATTTA [XGTACX_site4883],8.64 ± 0.4
2,ATGAATATAATAAAGAAACACACGTATACATAATGA [CACACA_site1355],9.11 ± 0.45
3,ATATATAAAATATACACACATACTGTTCATTTAAAG [CACACA_site4169],8.83 ± 0.38
4,ATTTATATATCGCCCACACACATGTGATTATTTATA [CACACA_site6905],9.3 ± 0.35
5,TATTTCAAAAAAAAAAAAAATAAAAAACAACAACAA [CACACA_negctrl_site893],8.55 ± 0.39
6,AAAAAAAATTATATATGTACTTATTAATCCTTATAT [XGTACX_site1389],8.53 ± 0.52
7,TACTACTATCTATATTGTACAAAAGGTGCCTACAAA [XGTACX_site4267],8.68 ± 0.35
8,TACAAGTTTTTAAAGTGTACCAAAAAAAAAGAATAA [XGTACX_site979],8.71 ± 0.49
9,TCTATTCAAAATAAAAGTACTAGCATGTGAATTGTT [XGTACX_site5530],8.63 ± 0.38
10,TTCATTTATTTACTTACACACTTTATATATGTGGTT [CACACA_site4901],9.16 ± 0.49
11,AGTATATACACGTGCGTGCACAGATATTCTTTTTTT [GTGCAC_site9398],8.87 ± 0.36
12,GATATAATTATATTATGGTGTTTTTGATAGATATTT [GTGCAC_negctrl_site313],8.71 ± 0.39
13,ATCAAACCATAAAAGAGTACAAAAGGATGATATTTT [XGTACX_site8883],8.97 ± 0.4
14,TATTTTAAAGAGAAAACATGCATTATATAGAACATT [TGCATGCA_site328],8.49 ± 0.38
15,ATAAAATATAGATGCACACACATATAGATTTCATAC [CACACA_site7636],9.29 ± 0.37
16,TGTATATTTTTTATTACACACTTTTTACTTTTTAGA [CACACA_site3069],8.77 ± 0.55
17,TTTTTTAATTGTGATACGTATATTATTTAATGATAA [GTGCAC_negctrl_site704],8.45 ± 0.3
18,AGAGAGATGACAAAAAGATGAATAACGTTAAGGGAT [XGTACX_negctrl_site120],9.25 ± 0.49
19,TATTTATTGTGATACTTATATTATTTTATGATTAAA [CACACA_negctrl_site901],8.48 ± 0.41
20,ATGGAAATATATACATGTACATAAATATATATATAT [XGTACX_site8391],9.18 ± 0.37
21,ATGTTTTGCATATATTATATATTTATTTATTTTTTT [CACACA_negctrl_site729],8.77 ± 0.51
22,AGTGGACTTTTTTTTTTTTTTTTTTTTTTTTTATTA [CACACA_negctrl_site547],8.54 ± 0.57
